Most values come without repeats; read them as rough.
Experiments:
[1] = system: CHO-K1; assay: relative survival (nuclei to bead ratio vs DMSO control) (% of vehicle control); higher = more surviving cells
[2] = system: CHO-K1; assay: micronucleus frequency (% of nucleated events); higher = more micronuclei (genotoxic)
[3] = system: CHO-K1; assay: hypodiploid nuclei frequency (% of nucleated events); higher = more hypodiploid events (aneugenic)
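Wherever hypodiploid nuclei frequency (% of nucleated events) is given: hypodiploid nuclei gated on a flow cytometer with 488 nm excitation after SYTOX Green staining, cultures at 37 °C, positive controls vinblastine without S9 and cyclophosphamide with S9.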
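Wherever micronucleus frequency (% of nucleated events) is given: cells lysed with nuclei stained by SYTOX Green, then micronucleus-gated events counted against nucleated events by flow cytometry with 488 nm excitation.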
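Wherever relative survival (nuclei to bead ratio vs DMSO control) is given: Lysed-cell nuclei stained with SYTOX Green and counted against counting beads by flow cytometry at 488 nm excitation, with vinblastine (no S9) and cyclophosphamide (plus S9) as positive controls.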

Cc1ccc(S(=O)(=O)NC(=O)NN2CCCCCC2)cc1 [Tolazamide]
Details | hypodiploid nuclei frequency, [3] [%] | micronucleus frequency, [2] [%] | relative survival, [1]
concentration: 4.5 (µM), S9 metabolic activation: with S9, exposure time: 3-4 hours | 0.21 | 1.55 | 86.6
concentration: 4.5 (µM), S9 metabolic activation: without S9, exposure time: 24 hours | 0.72 | 1.92 | 177
concentration: 5.63 (µM), S9 metabolic activation: with S9, exposure time: 3-4 hours | 0.23 | 2 | 97.1
concentration: 5.63 (µM), S9 metabolic activation: without S9, exposure time: 24 hours | 0.7 | 1.88 | 153
concentration: 7.04 (µM), S9 metabolic activation: with S9, exposure time: 3-4 hours | 0.19 | 1.38 | 120
concentration: 7.04 (µM), S9 metabolic activation: without S9, exposure time: 24 hours | 0.56 | 1.88 | 166
concentration: 8.8 (µM), S9 metabolic activation: with S9, exposure time: 3-4 hours | 0.22 | 1.37 | 116
concentration: 8.8 (µM), S9 metabolic activation: without S9, exposure time: 24 hours | 0.82 | 1.72 | 136
concentration: 11 (µM), S9 metabolic activation: with S9, exposure time: 3-4 hours | 0.31 | 1.38 | 114
concentration: 11 (µM), S9 metabolic activation: without S9, exposure time: 24 hours | 0.68 | 1.4 | 102
concentration: 13.7 (µM), S9 metabolic activation: with S9, exposure time: 3-4 hours | 0.19 | 1.71 | 138
concentration: 13.7 (µM), S9 metabolic activation: without S9, exposure time: 24 hours | 0.58 | 1.74 | 108
concentration: 17.2 (µM), S9 metabolic activation: with S9, exposure time: 3-4 hours | 0.19 | 1.46 | 126
concentration: 17.2 (µM), S9 metabolic activation: without S9, exposure time: 24 hours | 0.46 | 1.74 | 123
concentration: 21.5 (µM), S9 metabolic activation: with S9, exposure time: 3-4 hours | 0.33 | 1.29 | 108
concentration: 21.5 (µM), S9 metabolic activation: without S9, exposure time: 24 hours | 0.54 | 2.38 | 116
concentration: 26.8 (µM), S9 metabolic activation: with S9, exposure time: 3-4 hours | 0.29 | 2.74 | 93.3
concentration: 26.8 (µM), S9 metabolic activation: without S9, exposure time: 24 hours | 0.78 | 1.92 | 129
concentration: 33.6 (µM), S9 metabolic activation: with S9, exposure time: 3-4 hours | 0.22 | 4.24 | 90.1
concentration: 33.6 (µM), S9 metabolic activation: without S9, exposure time: 24 hours | 1.06 | 2.6 | 112
concentration: 41.9 (µM), S9 metabolic activation: with S9, exposure time: 3-4 hours | 0.41 | 3.93 | 97.9
concentration: 41.9 (µM), S9 metabolic activation: without S9, exposure time: 24 hours | 0.58 | 1.78 | 122
concentration: 52.4 (µM), S9 metabolic activation: with S9, exposure time: 3-4 hours | 0.39 | 6.29 | 101
concentration: 52.4 (µM), S9 metabolic activation: without S9, exposure time: 24 hours | 0.7 | 2.22 | 124
concentration: 65.5 (µM), S9 metabolic activation: with S9, exposure time: 3-4 hours | 0.27 | 2.48 | 86.6
concentration: 65.5 (µM), S9 metabolic activation: without S9, exposure time: 24 hours | 0.7 | 2.24 | 111
concentration: 81.9 (µM), S9 metabolic activation: with S9, exposure time: 3-4 hours | 0.29 | 3.57 | 101
concentration: 81.9 (µM), S9 metabolic activation: without S9, exposure time: 24 hours | 0.62 | 2.24 | 118
concentration: 102 (µM), S9 metabolic activation: with S9, exposure time: 3-4 hours | 0.21 | 2.34 | 100
concentration: 102 (µM), S9 metabolic activation: without S9, exposure time: 24 hours | 0.86 | 2.08 | 124
concentration: 128 (µM), S9 metabolic activation: with S9, exposure time: 3-4 hours | 0.23 | 1.99 | 115
concentration: 128 (µM), S9 metabolic activation: without S9, exposure time: 24 hours | 0.72 | 2.3 | 76
concentration: 160 (µM), S9 metabolic activation: with S9, exposure time: 3-4 hours | 0.29 | 2.14 | 124
concentration: 160 (µM), S9 metabolic activation: without S9, exposure time: 24 hours | 1.22 | 4.04 | 114
concentration: 200 (µM), S9 metabolic activation: with S9, exposure time: 3-4 hours | 0.34 | 2.39 | 124
concentration: 200 (µM), S9 metabolic activation: without S9, exposure time: 24 hours | 1.3 | 3.82 | 114

— the supplement of paper PMC9151546
